This note sets out measurements from the supplement of paper PMC9446081.

About 220 (0.56%) of roughly 39,000 compounds showed activity. This is one part of the list.
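Further: static incubation at 37 °C against the wild-type strain, values averaged over two biological replicates.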

In this assay the test system is Escherichia coli K-12 BW25113. Nature of the assay: relative growth (OD600 normalised to plate interquartile mean) (fraction); higher = less growth inhibition, active = 0.2 or less. Conditions: 50 µM; LB; incubation time: overnight (16-24 h).
With `Cc1ccc(-c2cnc3c(c2)C(=O)N([C@@H](C)CO)C[C@H](C)[C@@H](CN(C)C(=O)Cc2cccnc2)O3)cc1`, the relative growth was inactive: 0.988.

Take `C[C@@H]1CN([C@@H](C)CO)C(=O)c2cccc(NS(=O)(=O)c3cccs3)c2O[C@@H]1CN(C)CC1CC1`: the relative growth is inactive: 0.982.

In the case of `OC[C@@H](O)[C@H]1O[C@H](c2ccccc2)OC[C@@H]1O`, the relative growth is inactive: 1.05.

For the compound `CC(=O)O[C@H]1[C@@H](OC(C)=O)C(C)(C)/C=C/[C@@](C)(O)C(=O)[C@]2(O)[C@H]([C@@H](OC(C)=O)[C@](C)(OC(C)=O)[C@H]2OC(C)=O)[C@H]2OC(=O)CC[C@@]2(OC(C)=O)[C@@H]1OC(=O)C(C)C`, the relative growth was inactive: 0.992.

For `O=C(C[C@@H]1CC[C@@H]2[C@H](COC[C@@H](O)CN2C(=O)c2cccnc2)O1)NCc1ccc(-c2ccccc2)cc1`, the relative growth is inactive: 0.997.

As to `COc1ccc(S(=O)(=O)N(C)C[C@H]2Oc3ncc(C#CC4(O)CCCC4)cc3C(=O)N([C@@H](C)CO)C[C@H]2C)cc1`, the relative growth was inactive: 1.

For `C[C@H](CO)N1C[C@H](C)[C@H](CN(C)Cc2ccc(Cl)c(Cl)c2)Oc2ccc(NC(=O)CCCCCC(=O)Nc3ccccc3N)cc2C1=O`, the relative growth is inactive: 0.986.

For `C[C@H]1CCCCO[C@H](CN(C)C(=O)Nc2ccc(F)cc2)[C@@H](C)CN([C@@H](C)CO)C(=O)c2cc(NC(=O)Nc3ccc4c(c3)OCO4)ccc2O1`, the relative growth is inactive: 1.

`COc1ccc(CN(C)C[C@@H]2Oc3ccc(NC(=O)Cn4cnnn4)cc3CC(=O)N([C@@H](C)CO)C[C@H]2C)cc1`: the relative growth is inactive: 1.

Consider `C[C@H](CO)N1C[C@H](C)[C@@H](CN(C)CC2CC2)Oc2ccc(NS(=O)(=O)c3cn(C)cn3)cc2C1=O`, for which the relative growth was inactive: 0.969.

`COc1ccc(NC(=O)N(C)C[C@H]2Oc3c(NC(=O)Nc4ccc(C(F)(F)F)cc4)cccc3C(=O)N([C@H](C)CO)C[C@@H]2C)cc1`: the relative growth was inactive: 0.84.

Regarding `Cc1noc(C)c1NC(=O)Nc1ccc2c(c1)C(=O)N([C@H](C)CO)C[C@@H](C)[C@H](CN(C)Cc1ccc(C(=O)O)cc1)OCCCC[C@H](C)O2`, the relative growth is inactive: 0.994.

Take `C[C@@H]1CN([C@@H](C)CO)C(=O)c2cc(NC(=O)CCCN(C)C)ccc2O[C@@H](C)CCCCO[C@@H]1CN(C)Cc1ccc(C(F)(F)F)cc1`: the relative growth was inactive: 0.961.

Consider `COCCNC(=O)C[C@H]1CC[C@H]2[C@@H](COC[C@@H](O)CN2C(=O)Nc2ccccc2OC)O1`, for which the relative growth was inactive: 0.949.

On to `CCS(=O)(=O)Nc1ccc2c(c1)C(=O)N(C)C[C@H](OC)[C@H](C)CN(Cc1nccs1)[C@@H](C)CO2`, for which the relative growth was inactive: 1.

As to `O=C1[C@@H]2[C@H](O)CS[C@@H]2C(=O)N1c1ccccc1`, the relative growth was inactive: 1.01.

Take `C[C@@H]1CN([C@H](C)CO)C(=O)c2cccc(NC(=O)c3cnccn3)c2O[C@H]1CN(C)C(=O)NC1CCCCC1`: the relative growth was inactive: 0.913.

In the case of `C[C@@H]1CCCCO[C@@H](CN(C)C(=O)Nc2ccc(C(F)(F)F)cc2)[C@H](C)CN([C@@H](C)CO)C(=O)c2cc(NC(=O)C3CCCCC3)ccc2O1`, the relative growth is inactive: 1.01.

Consider `CN1C(=O)c2cc(NC(=O)c3ccc(C(F)(F)F)cc3)ccc2OC[C@@H]2O[C@@H](CC(=O)NC3Cc4ccccc4C3)CC[C@H]21`, for which the relative growth is inactive: 1.03.

Take `C[C@H]1CCCCO[C@@H](CN(C)Cc2ccc(C(=O)O)cc2)[C@@H](C)CN([C@@H](C)CO)C(=O)c2cc(NS(=O)(=O)c3ccc(Cl)cc3)ccc2O1`: the relative growth was inactive: 1.

Regarding `Cc1ccc(S(=O)(=O)Nc2ccc3c(c2)CC(=O)N([C@@H](C)CO)C[C@H](C)[C@@H](CN(C)CC2CC2)O3)cc1`, the relative growth was inactive: 1.01.

For the compound `C[C@@H]1CCCCO[C@H](CN(C)C(=O)CCC(F)(F)F)[C@@H](C)CN([C@H](C)CO)C(=O)c2cc(NS(=O)(=O)c3ccc(Cl)cc3)ccc2O1`, the relative growth was inactive: 1.01.

For the compound `C[C@@H]1CN([C@@H](C)CO)C(=O)Cc2cc(NC(=O)CCCCCC(=O)Nc3ccccc3N)ccc2O[C@@H]1CN(C)Cc1ccccc1`, the relative growth was inactive: 0.976.

Regarding `C[C@@H]1CCCCO[C@H](CN(C)C(=O)Nc2ccc(F)cc2)[C@H](C)CN([C@@H](C)CO)C(=O)c2cc(NC(=O)CCCN(C)C)ccc2O1`, the relative growth was inactive: 0.974.

Regarding `CN1C(=O)c2cc(NC(=O)c3cccs3)ccc2OC[C@H]2O[C@@H](CC(=O)NCC(F)(F)F)CC[C@H]21`, the relative growth is inactive: 0.861.

`COc1cccc(-c2cn(CC[C@H]3CC[C@@H](NC(=O)CN(C)C)[C@H](CO)O3)nn2)c1`: the relative growth is inactive: 1.01.

Turning to `C[C@H]1CCCCO[C@H](CN(C)C(=O)Cc2ccccc2)[C@@H](C)CN([C@@H](C)CO)C(=O)c2cc(NS(=O)(=O)c3cccs3)ccc2O1`, the relative growth is inactive: 1.01.

In the case of `COc1ccc(CN(C)C[C@H]2OCCCC[C@H](C)Oc3ccc(NC(=O)Cc4ccccc4)cc3C(=O)N([C@H](C)CO)C[C@H]2C)cc1`, the relative growth was inactive: 0.974.

On to `CC(C)NC(=O)N(C)C[C@@H]1Oc2c(NS(=O)(=O)c3cn(C)cn3)cccc2C(=O)N([C@@H](C)CO)C[C@H]1C`, for which the relative growth is inactive: 1.02.

In the case of `COc1ccc(S(=O)(=O)N(C)C[C@H]2Oc3cc(C#CC4CCCC4)ccc3S(=O)(=O)N([C@H](C)CO)C[C@@H]2C)cc1`, the relative growth was inactive: 1.02.

Take `COC(=O)CC1C(C)(C)C(=O)C2CC3=C(CCC4(C)C3=CC(=O)OC4c3ccoc3)C1(C)C2=O` (configuration not stated): the relative growth is inactive: 1.02.

As to `O=C1O[C@@H](c2ccccc2)[C@@H](c2ccccc2)N2[C@@H](c3ccc(O)cc3)[C@]3(C(=O)Nc4ccc(C#CC5(O)CCCCCC5)cc43)[C@@H](C(=O)NC[C@H](O)c3ccccc3)[C@H]12`, the relative growth is inactive: 1.

`O=C(C[C@@H]1CC[C@H]2[C@@H](COC[C@@H](O)CN2C(=O)c2cnccn2)O1)NCc1ccc(Oc2ccccc2)cc1`: the relative growth was inactive: 0.983.

For the compound `COc1cccc(S(=O)(=O)Nc2ccc3c(c2)[C@@H]2C[C@H](CC(=O)NCc4ccccc4F)O[C@@H](CO)[C@@H]2O3)c1`, the relative growth was inactive: 0.978.

With `Cc1ccc2n[nH]c(C(=O)N3CCN4C(=O)CNC(=O)[C@@H]4C3)c2c1`, the relative growth was inactive: 1.

Consider `C[C@H]1CCCCO[C@H](CN(C)CC2CCCCC2)[C@@H](C)CN([C@@H](C)CO)C(=O)c2cc(NC(=O)C3CCCCC3)ccc2O1`, for which the relative growth was inactive: 0.973.

In the case of `Cc1ccc(S(=O)(=O)N(C)C[C@H]2OCCCC[C@H](C)Oc3ccc(NC(=O)C4CCCCC4)cc3C(=O)N([C@H](C)CO)C[C@H]2C)cc1`, the relative growth was inactive: 1.03.

As for `C[C@H]1CN([C@@H](C)CO)C(=O)c2cc(Br)cnc2O[C@H]1CN(C)Cc1ccc2c(c1)OCO2`, the relative growth was inactive: 0.983.

Take `C[C@@H]1CCCCO[C@H](CN(C)Cc2ccc(C(F)(F)F)cc2)[C@@H](C)CN([C@H](C)CO)C(=O)c2cc(NC(=O)Nc3ccc(C(F)(F)F)cc3)ccc2O1`: the relative growth was inactive: 0.984.

As for `C[C@H]1CN([C@@H](C)CO)C(=O)Cc2cc(NC(=O)Cc3cn(C)c4ccccc34)ccc2O[C@H]1CN(C)C`, the relative growth is inactive: 1.

With `C[C@H](CO)N1C[C@H](C)[C@@H](CN(C)C(=O)Nc2ccc(C(F)(F)F)cc2)Oc2ccc(NC(=O)CCCCCC(=O)Nc3ccccc3N)cc2CC1=O`, the relative growth was inactive: 0.99.

For `CO[C@@H](CN(C)S(=O)(=O)c1cn(C)cn1)[C@H](C)CN(C(=O)Nc1ccc(C(F)(F)F)cc1)[C@@H](C)CO`, the relative growth was inactive: 0.909.

As to `C[C@@H]1CN([C@@H](C)CO)C(=O)c2cc(NC(=O)c3ccccc3)ccc2O[C@@H](C)CCCCO[C@H]1CN(C)C(=O)Cc1ccccc1`, the relative growth is inactive: 1.01.

Consider `C[C@H](CO)N1C[C@H](C)[C@@H](CN(C)Cc2ccc(Oc3ccccc3)cc2)Oc2ccc(NC(=O)Nc3cccc4ccccc34)cc2CC1=O`, for which the relative growth was inactive: 1.04.

As to `COc1ccc(NC(=O)Nc2ccc3c(c2)C(=O)N([C@@H](C)CO)C[C@@H](C)[C@@H](CN(C)Cc2ccncc2)OCCCC[C@@H](C)O3)cc1`, the relative growth is inactive: 0.983.

On to `O=C1Nc2ccccc2O[C@@H]1CCO`, for which the relative growth is inactive: 0.964.

Take `CC(C)NC(=O)N(C)C[C@H]1Oc2ccc(NS(=O)(=O)c3ccc(Cl)cc3)cc2CC(=O)N([C@@H](C)CO)C[C@@H]1C`: the relative growth is inactive: 0.997.

For `C[C@H]1CCCCO[C@H](CN(C)Cc2ccc(C(=O)O)cc2)[C@@H](C)CN([C@@H](C)CO)C(=O)c2cc(NS(=O)(=O)c3ccccc3)ccc2O1`, the relative growth was inactive: 1.

Turning to `C[C@H]1CN([C@@H](C)CO)C(=O)c2cccc(NS(=O)(=O)c3cn(C)cn3)c2O[C@H]1CN(C)Cc1ccc(C(=O)O)cc1`, the relative growth is inactive: 0.977.

Consider `C[C@@H]1CN([C@@H](C)CO)C(=O)c2cc(NC(=O)CCCN(C)C)ccc2O[C@H]1CN(C)Cc1ccccc1`, for which the relative growth was inactive: 1.02.

Regarding `CNC[C@H]1OCCCC[C@@H](C)Oc2ccc(NC(=O)c3ccncc3)cc2C(=O)N([C@@H](C)CO)C[C@@H]1C`, the relative growth was inactive: 0.988.

As for `C[C@H]1CCCCO[C@@H](CN(C)CC2CCCCC2)[C@@H](C)CN([C@@H](C)CO)C(=O)c2cc(NC(=O)NC3CCCCC3)ccc2O1`, the relative growth is inactive: 0.976.

Consider `CC(C)c1ccc2c(ccc[n+]2C)c1`, for which the relative growth is inactive: 1.01.

With `c1ccc(COCc2ccccc2)cc1`, the relative growth is inactive: 1.01.

Consider `Cc1noc(C)c1NC(=O)N(C)C[C@H]1Oc2ccc(NC(=O)C3CC3)cc2CC(=O)N([C@@H](C)CO)C[C@H]1C`, for which the relative growth was inactive: 0.987.

With `C[C@@H]1CN([C@H](C)CO)C(=O)c2cc(NC(=O)Cn3cnnn3)ccc2O[C@@H]1CN(C)CC1CCCCC1`, the relative growth is inactive: 1.01.

With `COc1ccc(CN(C)C[C@H]2Oc3ccc(NC(=O)Nc4ccc(C(F)(F)F)cc4)cc3CC(=O)N([C@H](C)CO)C[C@H]2C)cc1`, the relative growth is inactive: 1.02.
